# Reference: PubChem BioAssay (Tox21)
# The shares of active, inactive and inconclusive entries below differ from those in the screen. For part of these data: No potency is given beside an inconclusive call; the fits are too rough. The source made the active and inactive calls. Unless noted, calls come from the whole dose curve; as a rule, active = well fitted curve in the direction sought with a large enough effect in the repeat runs; inconclusive = weak or mixed curves; inactive = no such curve, though single readings can be large; an effect the other way counts as inactive or inconclusive.
# How the values were obtained:
# [1] = biological target: Progesterone receptor (Homo sapiens) (UniProt P06401); experiment: qHTS assay to identify small molecule antagonists of the progesterone receptor (PR) signaling pathway (AID 1346795; active = well fitted inhibition curve with a large enough effect in the signal ratio in the repeat runs, not every such curve was filed as active; inconclusive = weak or mixed curves; the % refers to the signal ratio); settings: PR-UAS-bla HEK293T, beta-lactamase FRET ratio, 16 h; activity change, negative = inhibition: at 92.4 µM (top of the series) unless noted
# Chain of UniProt P06401 (P06401 whole entry, looked up): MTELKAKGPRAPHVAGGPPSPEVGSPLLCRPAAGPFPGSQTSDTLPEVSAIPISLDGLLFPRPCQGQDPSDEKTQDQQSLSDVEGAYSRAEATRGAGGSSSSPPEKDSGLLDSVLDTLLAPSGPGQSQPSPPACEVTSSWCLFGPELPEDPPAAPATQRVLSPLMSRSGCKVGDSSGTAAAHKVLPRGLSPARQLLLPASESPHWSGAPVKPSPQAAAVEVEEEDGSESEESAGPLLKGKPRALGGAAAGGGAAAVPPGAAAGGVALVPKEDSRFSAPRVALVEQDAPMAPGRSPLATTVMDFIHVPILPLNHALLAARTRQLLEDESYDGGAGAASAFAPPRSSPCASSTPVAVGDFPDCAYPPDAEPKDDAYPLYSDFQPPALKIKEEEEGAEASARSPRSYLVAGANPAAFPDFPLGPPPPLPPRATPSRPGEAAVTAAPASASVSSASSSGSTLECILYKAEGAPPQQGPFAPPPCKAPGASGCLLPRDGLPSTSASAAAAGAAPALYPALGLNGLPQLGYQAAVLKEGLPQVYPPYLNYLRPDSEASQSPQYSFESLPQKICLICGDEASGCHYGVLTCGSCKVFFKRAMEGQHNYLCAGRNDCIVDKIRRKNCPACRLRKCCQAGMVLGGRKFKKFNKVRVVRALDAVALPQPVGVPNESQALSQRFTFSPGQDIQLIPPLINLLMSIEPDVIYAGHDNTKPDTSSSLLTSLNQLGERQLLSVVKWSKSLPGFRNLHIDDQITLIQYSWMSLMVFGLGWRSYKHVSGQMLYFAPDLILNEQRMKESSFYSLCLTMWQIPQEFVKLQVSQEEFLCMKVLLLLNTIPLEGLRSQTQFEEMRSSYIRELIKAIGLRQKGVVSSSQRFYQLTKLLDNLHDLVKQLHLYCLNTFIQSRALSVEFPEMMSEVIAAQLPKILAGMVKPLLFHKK
# Outline: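 HEK293T PR-UAS-bla reporter cells in charcoal-stripped serum (2%) received compound after a 6 hr settling period, followed by R5020 agonist at 1 nM final; 16 hr incubation preceded the FRET substrate step and fluorescence measurement.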
# [2] = qHTS assay to identify small molecule agonists of the progesterone receptor (PR) signaling pathway - cell viability counter screen (AID 1346799; calls by dose curve; note: nearly all actives have a fitted effect of over 45% in size); settings: PR-UAS-bla HEK293T viability, CellTiter-Glo luminescence, 16 h; series mostly up to 92.4 µM
# Outline: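 Counter screen for cytotoxicity: compound-treated PR-UAS-bla HEK293T cells (16 hr, 37C, 5% CO2) were assayed with CellTiter-Glo, luminescence measured after 30 min at room temperature.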
# [3] = qHTS assay to identify small molecule agonists of the TGF-beta/Smad signaling pathway - cell viability counter screen (AID 1346829); settings: SBE-bla HEK293T viability, CellTiter-Glo luminescence, 5 h; series mostly up to 76.8 µM; note: top concentration of the series differs between compounds; nearly all actives have a fitted effect of over 45% in size
# Outline: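 Tox21 qHTS format: SBE-bla HEK 293T cells treated with DMSO-dissolved compounds for 5 hr; CellTiter-Glo luminescence after 30 min at room temperature.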
# [4] = qHTS assay to identify small molecule antagonists of the progesterone receptor (PR) signaling pathway - cell viability counter screen (AID 1346798); settings: PR-UAS-bla HEK293T viability, CellTiter-Glo luminescence, 16 h; series mostly up to 92.4 µM; note: nearly all actives have a fitted effect of over 50% in size; note: potency is the fitted concentration of half-maximal effect
# Outline: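 Same-well multiplex: after 16 hr at 37C with compound and R5020 stimulation, HEK293T cells carrying a UAS-bla reporter received LiveBLAzer substrate (2 hr RT), then CellTiter-Glo (30 min RT) for luminescent viability.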
# [5] = biological target: Thyrotropin-releasing hormone receptor (Homo sapiens) (UniProt P34981); experiment: qHTS assay to identify small molecule antagonists of the thyrotropin-releasing hormone receptor (TRHR) signaling pathway (AID 1346877; active = well fitted inhibition curve with a large enough effect in the repeat runs, not every such curve was filed as active; inconclusive = weak or mixed curves); settings: TRHR-HEK293, TRH-induced calcium fluorescence, antagonist mode; series mostly up to 51.3 µM
# Chain of UniProt P34981 (P34981 whole entry, looked up): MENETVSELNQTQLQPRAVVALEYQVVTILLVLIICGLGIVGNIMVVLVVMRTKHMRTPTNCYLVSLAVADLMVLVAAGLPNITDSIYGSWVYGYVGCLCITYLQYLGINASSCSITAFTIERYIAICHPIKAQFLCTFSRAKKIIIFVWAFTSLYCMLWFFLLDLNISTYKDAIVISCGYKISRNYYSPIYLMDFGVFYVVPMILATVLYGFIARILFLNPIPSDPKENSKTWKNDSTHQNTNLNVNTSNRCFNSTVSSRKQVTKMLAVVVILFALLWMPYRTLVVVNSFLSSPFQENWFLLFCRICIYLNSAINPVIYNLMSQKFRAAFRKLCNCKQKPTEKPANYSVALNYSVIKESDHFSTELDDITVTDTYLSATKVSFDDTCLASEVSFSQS
# Outline: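 Following an 18 h incubation at 37 °C and a 2 h calcium dye load, TRHR-HEK293 cells were exposed to compound (5 min, room temperature) and challenged with TRH, 1 nM final.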
# % is set by controls: 0 for no effect and ±100 for the full control effect; tags give direction and shape of the fitted curve.
compound,measurement,setting,value
C=C(C)C1CCC(C)CC1O (centres undefined),"activity change, negative = inhibition",[1],inconclusive: -3.09%
same,Potency,[2],inactive
same,Potency,[3],inactive
CC1(C)C(O)C(C)(C)C1O (centres undefined),Potency,[4],inactive
CC(=O)N(O)CCCCCNC(=O)CCC(=O)N(O)CCCCCNC(=O)CCC(=O)N(O)CCCCCN,Potency,[4],"inconclusive [cytotoxic, single point]"
CCOCN(C(=O)CS(=O)(=O)O)c1c(C)cccc1CC,Potency,[4],inactive
CCO[C@H](Cc1ccc(OCCc2ccc(OS(C)(=O)=O)cc2)cc1)C(=O)O,Potency,[4],"inconclusive [cytotoxic, single point]"
CCS(=O)(=O)c1ccc(OC)c(C(=O)OC)c1,Potency,[3],inactive
CC1CCN(CCCC(=O)c2ccc(F)cc2)CC1,Potency,[5],inactive
